19 molecules from the supplement of paper PMC12632987 can be followed below.

In all, about 4,500 sequences were measured (“median log2 fold change of GCK-ALFA target abundance (FLAG IP / Myc IP barcode read proportion)”: median about 0.078, lowest 2% from about -0.6 on). This is one part of the list.

First the molecules themselves.
B1: GBRAP_160_4026 (protein)
chain: SKSVEEIVKDFREELELILEHAKEMSEEELAGAIRTAIGQAILDVSESPDLKDLTREEVDELDELAEEVAKEISEGDEETRKKKAEELAEAVRKAIEKAA
B2: GBRAP_160_4807 (protein)
chain: MEKVEKKLEEFRKDLLEEAEATKDLPVEDRARILEAVGYTEILYLKEELNLSDETEEKLDAVVDELVATLLANPDLTPEEVLALVEEANKKVEEIVKAEV
B3: GBRAP_52_6065 (protein)
chain: MEERIEEMAEAIAEAVAAGDRERALALIARMIEELSLEEIRRTLELAARRVAGLGEEAHELFVEVLEEGEDLLIEAGISEEDALDIVGAAEAALAKAVAA
B4: GBRAP_11_2679 (protein)
chain: KKEQLKKIAEIAKELAEAIEKLLKEGVDNEKLLKEIKKLLKELKELAEKYADEGLKTLAEIAAELFEEALANPENAEHYLELLLAAVRVLLANVEEEIDE
B5: GBRAP_160_4304 (protein)
chain: KEEYEKLMKEIKEIAEEAIKMIEGQSKEEQKTIVKVALGEIILEVDESPAISDELEEEIDKIAEEAEKYLDENPDLSEEEIKELLKEAVEKILELIKKHS
B6: GBRAP_39_5716 (protein)
chain: EEEEELELLASYAEALFAKYQYEKGISEEEAVAEGLAYMRRLAEEHPEYREEIEELIAEARRLGPEAERVLAAAAAMVRAGMPLEEAIAVAKYEFEKLKK
B7: GBRAP_83_6938 (protein)
chain: AEKVVVAAPGDRVEEAVEIALDLKENEGYEVSLEIIFTKEQAEKVIEEVKKLIEKGYEGEITLINTDNDKELAEKVKEEIKEAAKKYGKNVKVNAYVIEP
B8: GBRAP_83_6956 (protein)
chain: MITVVGTSKPESIESAFDAAIDLHLEEGIEVEIEVYVTKESAEVALEAAERAIKAGVEFELTLIGKESEREVLEELAKRIKEAAKAAGVDVKVEVVVEED
B9: GBRAP_11_2612 (protein)
chain: SKEIKKEMAKLAEEAAKVIEELLEKGVDDEELQKKAEKLLKELAELVKKYGDKADQTLVEVAKELLKEAKEDPENKEFYWEQLLAAMRVLSGNFLLDIEE
B10: GBRAP_52_5895 (protein)
chain: KAEEVLKLLKKAVDAVAEGKEEEARKYILEAVKVAVELSEEEVRKVAKEAAKYAAEKSKEVFEKFLELVLEVLDEEEDLTEDEEAVLETLAAEFAKVYLA
B11: GBRAP_14_3787 (protein)
chain: MEKALALLDEAAAEIKAEAARIAPEKAAELGALIDELFAATRAEIKATGDAVAAVEALRDRLLAGAAEILADADEETRAALLAAIDDILTETELRLEELE
B12: GBRAP_160_4400 (protein)
chain: KEKFEKTKKEITEIFDELEELIKGQSKEERRVIIRVSFGQVIMEIFENDAFTDEQEEEFSKIVDEYLERALAAVDEGLEAVLKVIREARDELLAFIESLE
B13: GBRAP_160_4654 (protein)
chain: SAEVEALIARIRAILDEAVAMMVGETHEQRVAIARDMRGEILLELEESPEVSEEAEDAVDAIMDALVATIAANPDLTDEELAALFAEAAAAIEATLKALA
B14: GBRAP_160_4702 (protein)
chain: SETAEELKKYVEEVFEEAKELIKGETREQRAIIIEGAIGEILMELAENEKATDELEDEVDKIGDELVETILKNENITDEELEELIDEAVKKMKEAIDKHL
B15: GBRAP_14_3840 (protein)
chain: REEVRRLLLEAVERAVEEVRKFAPEEARERVEALREVLRRAVDEGLETGDLEEAERRLVEVAEAAVRELFADLPPEERGALVAVAVDELVEGFEELEERL
B16: GBRAP_128_3278 (protein)
chain: ADPAIVARARAFVEAIAAADLETARELAEEFAAWLGSVSVEQAATAVAVVKERLGELSVEKLEVLADVLREQRPLFDPEKANLVADLEVEALNEAEEKEE
B17: GBRAP_78_6577 (protein)
chain: EVEELVDKAIELLGKAASLLSKQKTEEANDILGEVIDAISYLVEAEENGFDLELLEKALEEAKKALELVKKQKSEEAKEVAKLLEEAIELLEKAIKLLKE
B18: GBRAP_160_4295 (protein)
chain: METLEELKELIEETIERTAELMVGESAEQRATIVAGELGSLIYELSERPEVSDETIDKFVEIRDELVAYILANPDLTDEELRELLEEAREKMIEVLEEDF
B19: GBRAP_128_3560 (protein)
chain: SVEEAVARARELLERIRASDVEAAREAARELAALLEAADPEALEAIVAEILERLPELSVEHLEVLADVFREAMPSADPRTAEALAEIEVEALNEAEEKEE

Chain of GABARAP, O95166 (O95166 whole entry, the tested form may be a part): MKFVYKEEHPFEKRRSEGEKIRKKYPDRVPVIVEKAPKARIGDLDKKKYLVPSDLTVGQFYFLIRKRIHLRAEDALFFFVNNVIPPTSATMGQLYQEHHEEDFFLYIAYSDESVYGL

The assay addresses GABARAP, O95166. The assay can be described thus: median log2 fold change of GCK-ALFA target abundance (FLAG IP / Myc IP barcode read proportion) (log2 ratio); each designed protein is fused to an ALFA-tag nanobody in HEK293 cells to bring the named protein to FLAG-tagged glucokinase (GCK); Myc marks an untargeted standard; higher = target protein stabilised (more abundant). As to conditions: target protein: 3xFLAG-MCP-GCK-ALFA reporter; HEK293 landing pad (RPLP). Summed up:
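Sequencing of reverse-transcribed, amplified circular RNA barcodes from anti-FLAG and anti-Myc immunoprecipitates provided the readout for an ALFA-nanobody-fused binder library recombined into HEK293 landing-pad cells. Those cells were induced with 2 μg mL^−1 doxycycline, transfected with a plasmid expressing a FLAG-tagged target and a Myc-tagged standard, and lysed after 48 h. Target abundance is the per-binder median log2 ratio of FLAG to Myc barcode read proportions. Only barcodes at a proportion of ≥10^−7 in both replicates and binders with ≥3 barcodes per replicate were kept, with a 10^−6 pseudocount added before the two replicates were pooled.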
For B1, the “median log2 fold change” value came out at 0.184.

Consider B2, for which the “median log2 fold change” value was 0.382. To B3 belongs -0.53.

Regarding B4, the “median log2 fold change” value is -0.169. To B5 belongs 0.00504. The value for B6 was 0.0902; that for B7 was -0.114; that for B8 was 0.0672. The value for B9 was 0.16; that for B10 was 0.0362; that for B11 was 0.248. Regarding B12, the “median log2 fold change” value is -0.211. The value for B13 was -0.104; that for B14 was -0.134. As to B15, the “median log2 fold change” value was determined as 0.0661. To B16 belongs 0.304. To B17 belongs -0.0482; to B18, -0.207; to B19, 0.103.
